From PubChem BioAssay AID282 (DTP/NCI, 2004) come the findings set out here.

Structures are written as SMILES. Toxic doses and inconclusive results are not listed. Some entries of the source have several records that differ or are many. This is not the full list of results. There may be further records. Values that stand side by side repeat one measurement in other runs, samples, wells, individuals or studies.

The assay deals with BDF1 mice, L1210 terephthalanilide-resistant leukemia ip, survival T/C. Briefly: NCI In Vivo Anticancer Drug Screen. Data for tumor model L1210 Leukemia resistant to A Terephthalanilide; NSC 38280 (intraperitoneal) in B6D2F1 (BDF1) mice. The settings on record: endpoint: mean survival time, higher = longer survival. The procedure: The antitumor activity of compounds was measured in mice bearing transplantable tumors. Survival or tumor size were measured and the results are expressed as the measurement made in the treated group (T) divided by the measurement made in the vehicle treated control group (C). The tumor model used in this assay is L1210 Leukemia resistant to A Terephthalanilide; NSC 38280 (intraperitoneal) in B6D2F1 (BDF1) mice

[1] abbreviates: dose: 100.0 mg/kg/injection, schedule: Q01DX010 (ip), vehicle: saline.

As for `O=C(Nc1ccc(NC2=NCCN2)cc1)c1ccc(C(=O)Nc2ccc(NC3=NCCN3)cc2)cc1`, for the setting “dose: 8.0 mg/kg/injection, schedule: Q01DX010 (ip), vehicle: saline”, the T/C is 111 % of control and 165 % of control.

Turning to `CN(C)/N=N/c1nc[nH]c1C(N)=O`, the T/C under setting [1] is 109 % of control and 170 % of control.

Consider `Cc1cc(N(CCCl)CCCl)ccc1N=Nc1ccccc1C(=O)O`, for which the T/C (dose: 3.12 mg/kg/injection, schedule: Q01DX Z (ip), vehicle: carboxymethylcellulose (CMC)) is 119 % of control and 162 % of control.

For `COc1cc(-c2ccc(Nc3ccccc3C(=O)O)c(OC)c2)ccc1Nc1ccccc1C(=O)O`, the T/C under setting [1] is 92 % of control and 150 % of control.

In the case of `O=c1cnn(C2OC(CO)C(O)C2O)c(=O)[nH]1` (stereo not given), the T/C (dose: 400.0 mg/kg/injection, schedule: Q01DX010 (ip), vehicle: saline) is 107 % of control, 154 % of control, 168 % of control.
